In ChEMBL document CHEMBL1157539, “Thousands of chemical starting points for antimalarial lead identification” (Nature, 2010) one finds IFI data, which are given here for 91 compounds.

Where “and” joins values, the source holds several entries; their conditions need not be identical. Equal values may be shown once. The full ranking holds about 13,000 compounds; the median of “IFI” is about 4, and the highest 2% start at about 17. This is one part of the list.

The nature of the test: GSK_TCMDC: Inhibition Frequency Index (IFI). The number of non-kinase HTS assays where a compound showed > 50 % inhibition, expressed as a percentage of the number of such assays in which the compound was tested (-0 is zero). The class given is functional.
The compound `CC(C)c1ccc(NC(=O)Nc2ccc(CCNCCCc3ccccc3)cc2)cc1` showed an IFI of 3.62%.

Take `O=C(/C=C/c1ccc(Cl)c(Cl)c1)NC1CCN(Cc2ccc(O)cc2)CC1`: the IFI was 0.67%. Take `CCNc1cc(C(=O)N[C@@H](Cc2ccc(F)c(F)c2)[C@H](O)CNC2CCCCC2)cc(N2CCCCS2(=O)=O)c1`: the IFI is 2.1%. The figure for `Cc1cc(=NN=Cc2ccccc2F)c2ccccc2[nH]1` is 3.62%. The figure for `CCC(COCc1ccc(Cl)cc1)N(C)CCN(C)C(CC)COCc1ccc(Cl)cc1` (stereo unspecified) is 19.6%. The figure for `COc1ccc(CN(C)Cc2ccc(NC(=O)c3cccc4c(=O)c5cccc(C)c5[nH]c34)cc2)cc1OC` is 1.57%; for `O=C(Nc1ccc(-c2cccc(-c3nc4cc(F)ccc4[nH]3)c2)cc1)c1cnn2cccnc12` it is 1.92%. For `O=C(Nc1ccc(C(=O)Oc2ccc3ccccc3c2)cc1)N[C@@H](Cc1ccc(O)cc1)C(=O)NC1CCN(Cc2ccc(O)cc2)C1` (stereo partly specified), the IFI was found to be 8.05%. Regarding `COc1ccc2nccc(N3CCC(O)(CCNCc4ccc5c(n4)NC(=O)CS5)CC3)c2n1`, the IFI came out at 2.9%. Take `N#CCc1ccc(Nc2nccc(Nc3ccc(Oc4ccccc4)cc3)n2)cc1`: the IFI was 9.86%. Take `c1ccn2c(Sc3ncnc4sccc34)ncc2c1`: the IFI turned out to be 4.17%. The figure for `Cc1ccc(OCCCCON2C(=N)N=C(N)NC2(C)C)cc1C` is 3.57%. For `Cc1cc(NC(=O)Nc2ccc(C#N)cc2)c2ccccc2n1`, the IFI was 6.77%.

`CC1(C)N=C(N)N=C(N)N1c1cc(Cl)c(Cl)cc1Cl` registered an IFI of 0.85%. Turning to `O=C(N[C@@H](CC1CCCCC1)C(=O)NCCN1CCOCC1)c1ccc(O)c(-c2ccc(Cl)c(Cl)c2)c1`, the IFI turned out to be 1.48%. `CCC(=C(CC)c1ccc(O)c(CNC2CCCCC2)c1)c1ccc(O)c(CNC2CCCCC2)c1` registered an IFI of 11.4%.

Regarding `CN(C)C(=O)CN1CCN(c2ncnc(N3CCc4c([nH]c5ccccc45)[C@@H]3c3ccc4c(c3)CCO4)n2)CC1`, the IFI came to 2.9%.

`Cc1cc(C2NC(=O)c3ccccc3N2)c(C)n1-c1ccc2c(c1)OCO2` (stereo unspecified) returned an IFI of 3.7%. The figure for `O=C(Nc1cccc(F)c1)N1CCC(NS(=O)(=O)c2ccc(Br)cc2)CC1` is 0.74%. As for `O=S(=O)(NCCN1CCCC1)c1cccc(-c2ccc(CNCc3ccsc3)cc2)c1`, the IFI amounted to 8.41%. Turning to `OC(CNCc1ccccc1)c1cc(OCc2ccccc2)cc(OCc2ccccc2)c1` (stereo unspecified), the IFI turned out to be 4.51%.

Compound `COc1ccc(NC(=O)c2ccc(Br)c(C)c2)cc1N1CCN(CCCc2c[nH]c3ccccc23)CC1` registered an IFI of 3.08%. The figure for `O=C(Nc1ccc2c(c1)CCNCC2)Nc1ccc2ccccc2c1` is 3.45%. `COc1ccc(NC(=O)[C@H](C)Nc2cc(C)nc(NCC3CCCCC3)n2)cc1` came in with an IFI of 12.5%. With `CCc1ccc(OCc2ccccc2C(=O)Nc2ccc3nc(C)cc(N)c3c2)cc1`, the IFI is 11.3%. The compound `Nn1c(=O)oc2ccc(Cl)cc2c1=O` displayed an IFI of 2.92%. Compound `CCCCCCCN1CC[C@@H](CCCc2ccnc3ccc(OCCCCNC(N)=O)cc23)[C@@H](CC)C1` displayed an IFI of 8.76%. `COc1ccc2nc3cc(Cl)ccc3c(NCCCO)c2c1` came in with an IFI of 5.51%. For the compound `CCOC(=O)c1cn(CC)c2cc(OCc3ccccc3)ccc2c1=O`, the IFI stood at 0.83%. Compound `O=C(Nc1ccc(-c2ccc(-c3nc4ccccc4[nH]3)s2)cc1)Nc1ccsc1` returned an IFI of 2.02%.

Consider `COc1ccc(NC(=O)Nc2ccc(C)c(-c3ccc(C(=O)Nc4ccncc4)cc3)c2)cc1`, for which the IFI was 25.4%. The compound `COc1cc(-c2[nH]c(-c3ccc(OCCN(C)C)cc3)cc2-c2ccncc2)ccc1Cl` returned an IFI of 4.32%. `O=[N+]([O-])c1ccc(Nc2nc(NCc3ccccc3)nc(N/N=C/c3ccccc3[N+](=O)[O-])n2)cc1` had an IFI of 3.97%. In turn, `CCCCCCCNCCNc1cc(C)nc2ccccc12` had an IFI of 7.19%. The figure for `OCC1CCN(Cc2ccc(-c3cccc(-c4nc5cc(C(F)(F)F)ccc5[nH]4)c3)cc2)CC1` is 0.99%; for `Cc1cc(N[C@@H](Cc2ccccc2)C(=O)NCc2cccc(F)c2)nc(NCC2CCCCC2)n1` it is 27.9%; for `CN(Cc1c(Cl)cnn1C)S(=O)(=O)c1ccc2ccccc2c1` it is 14.8%. Compound `COc1ccc2nccc([C@@H](O)CN3CCC(NCCOc4c(C)cccc4F)CC3)c2c1` showed an IFI of 2.24%. `CC(CN(C)C)C(=O)Nc1ccc(-c2cccc(-c3nc4cc(C(F)(F)F)ccc4[nH]3)c2)cc1` (stereo unspecified) came in with an IFI of 6.25%. `O=C(Cc1c[nH]cn1)Nc1cccc(-c2cccc(-c3nc4ccccc4[nH]3)c2)c1` displayed an IFI of 3.67%. For `Fc1ccccc1C=NNc1ccnc2cc(Cl)ccc12`, the IFI came to 1.48%. Consider `CN1CCN(CCCSc2ccc3c(c2)ncn3-c2cc(OCc3ccccc3C(F)(F)F)c(C(N)=O)s2)CC1`, for which the IFI came to 10.8%.

As for `Cc1csc2nc(-c3ccccn3)nc(Nc3ccncn3)c12`, the IFI is 9.87%.

Take `CCc1cc2c3c(N)nc(N)nc3ccc2n1CC`: the IFI is 3.52%. The figure for `COc1ccc(Nc2ccnc3cc(-c4ccccn4)ccc23)cc1OC` is 2.13%. For the compound `COc1ccc(NC(=O)CCNc2cc(C)nc(NCCc3ccccc3)n2)cc1`, the IFI was 2.27%. Compound `Cc1ccc2c(=NN=Cc3ccc(N(C)C)cc3)cc(C)[nH]c2c1` displayed an IFI of 4.44%. `Cc1cc(NC(=O)c2ccco2)ccc1OC1CCN(Cc2ccccc2)CC1` displayed an IFI of 1.67%. The figure for `Cn1cncc1CCCN(Cc1ccc(-c2ccc(C(F)(F)F)cc2)cc1)C(=O)Cn1c(CCc2cccc(F)c2F)cc(=O)c2cccnc21` is 1.48%. With `CCCCCN1CCCC(NS(=O)(=O)c2ccc(C(=O)Nc3ccc(C(F)(F)F)cc3)cc2)C1` (stereo unspecified), the IFI is 5.88%. `COC(=O)c1ccc2nc(-c3cc(OC)c(O)c(C(=O)NC4CCN(Cc5ccccc5)CC4)c3)[nH]c2c1` returned an IFI of 0.76%. `CC(C)(C)c1ccc(CNC(=O)/C=C/c2ccc(CNC3CCNCC3)cc2)cc1` returned an IFI of 1.42%.

Compound `Cc1c[nH]c2cc(/C=C/C(=O)NC3CCC(CCN4CCc5ccc(C#N)cc5CC4)CC3)ccc12` (stereo unspecified) had an IFI of 2.99%. In turn, `COc1ccc2ncc(F)c(CCN3C4CCC3CC(NCc3ccc5c(c3)OCCO5)C4)c2n1` (stereo unspecified) had an IFI of 2.92%. The figure for `CCCNCc1ccc(-c2ccc(CN(CCOC)C(=O)COc3ccccc3Cl)cc2)nc1` is 2.26%; for `CC1CN(CC(O)Cn2c3ccc(Br)cc3c3cc(Br)ccc32)CC(C)O1` (stereo unspecified) it is 1.44%; for `N#Cc1ccc(N(CCOc2ccc(Cl)c(Cl)c2)Cc2ccccc2C(F)(F)F)cc1C(F)(F)F` it is 0%. On to `CCCCNCC(O)COc1ccccc1-c1ccc(N/N=C/c2cccc3ccccc23)nn1` (stereo unspecified), for which the IFI turned out to be 6.82%.

For the compound `CCN(CC)S(=O)(=O)c1cc(-c2ccc(=O)n(CC(=O)c3ccc(C)cc3)n2)ccc1C`, the IFI is 2.38%.

The compound `CN1CCC(NCc2cccc(-c3ccc(S(=O)(=O)NCc4ccccc4)c(F)c3)c2)CC1` had an IFI of 11.3%.

`Cc1ccc(F)cc1S(=O)(=O)NCC(C)c1ccc(NC(=O)Nc2cccc(F)c2)cc1` (stereo unspecified) came in with an IFI of 6.4%. The figure for `COc1cc2nc(NCCn3nc(C)cc3C)nc(NCCc3ccccc3)c2cc1OC` is 4.26%. In turn, `CCN(CC)CCN(Cc1ccc(-c2ccc(C(F)(F)F)cc2)cc1)C(=O)Cn1cc(CCCCc2cccc(F)c2F)c(=O)c2ccccc21` displayed an IFI of 5.19%. Compound `Cc1ccc(Nc2nc(C)cc(NC3CCN(C)CC3)n2)cc1` returned an IFI of 2.9%. Compound `CS(=O)(=O)c1ccc(Nc2ncc(-c3ccc(S(C)(=O)=O)cc3)c(OCC(F)(F)F)n2)cc1` displayed an IFI of 3.76%. As for `NC(=O)c1ccccc1OCC(=O)Nc1ccc(-c2cccc(-c3nc4cc(C(F)(F)F)ccc4[nH]3)c2)cc1`, the IFI is 4.39%. Compound `CN(CC(=O)Nc1cc(C(F)(F)F)ccc1-n1cncn1)Cc1ccc2ccccc2c1` had an IFI of 2.82%. `N=C(N)Nc1nc(-c2cccc(NC(=O)NCc3cccc4ccccc34)c2)cs1` registered an IFI of 3.1%. `CNCCCNCc1ccc(-c2ccc(F)c(Cl)c2)o1` had an IFI of 2.78%. For `O=C(Cn1c(CCc2cccc(F)c2F)cc(=O)c2ccccc21)N(CCN1CCCCC1)Cc1ccc(-c2ccc(C(F)(F)F)cc2)cc1`, the IFI amounted to 3.62%. `O=C(Nc1ccc(-c2nc3ccc(NC(=O)c4ccc(Br)cc4)cc3[nH]2)cc1)c1ccc(Br)cc1` had an IFI of 3.01%. `O=C(CC(c1ccccc1)c1ccccc1O)N1CCOCC1` (stereo unspecified) gave an IFI of -0%. `NC1CCN(Cc2ccc(-c3ccc(-c4nc5ccccc5[nH]4)cc3)cc2)C1` (stereo unspecified) returned an IFI of 4.29%. The figure for `Oc1cccc(Nc2nc(NCc3ccco3)c3ccccc3n2)c1` is 7.91%; for `CN1CC[C@@H](Oc2cc(C(=O)NCc3ccc(Cl)c(Cl)c3)ccc2C(F)(F)F)C1` it is 6.56%; for `O=C(NCCc1ccccc1)N(Cc1ccc(-c2cccc(CN3CCNCC3)c2)cc1)C1CCN(Cc2ccccc2)CC1` it is 6.67%. With `CN1CCN(CC(=O)Nc2cccc(-c3ccc(-c4nc5cc(C(F)(F)F)ccc5[nH]4)s3)c2)CC1`, the IFI amounted to 7.14%. `Cc1cccc2nc(-c3ccc(-c4cccc(CNCCNC(=O)c5ccnn5C)c4)s3)[nH]c12` had an IFI of 2.02%.

The compound `Cc1ncsc1CCN1C(=O)CC2(C1=O)C(=O)N(Cc1ccccc1)c1ccc(Cl)cc12` (stereo unspecified) returned an IFI of 1.72%.

In turn, `O=C(Nc1ccccc1O)C1CCN(c2ncnc3cc(-c4ccc(F)cc4)sc23)CC1` came in with an IFI of -0%. For the compound `Oc1ccc(CCNc2nc(NCCCOc3ccccc3-c3ccncc3)nc(N3CCNCC3)n2)cc1`, the IFI came out at 1.72%.

`COc1cc(NC2=C(c3ccccc3)C(=O)c3ccccc32)ccn1` had an IFI of 0.72%. The compound `O=C(N/N=C/c1nc2ccccc2[nH]1)c1cccc([N+](=O)[O-])c1` had an IFI of -0%.

For the compound `Oc1cc(-c2nc(C3(CNCc4ccc(Cl)cc4)CCCCC3)[nH]c2-c2ccncc2)ccc1Cl`, the IFI was determined as 11.6%.

In turn, `COc1ccc2c(=NN=Cc3ccccc3Cl)cc(C)[nH]c2c1` gave an IFI of 3.65%.

Regarding `O=C(Nc1cccc(-c2cccc(-c3nc4ccccc4[nH]3)c2)c1)NC1CC1c1ccccc1` (stereo unspecified), the IFI is 2.04% and 3.06%. The figure for `C=CCc1ccc(C[C@H](NC(=O)OC(C)(C)C)C(=O)OC)cc1` is 18.9%; for `O=[N+]([O-])c1cccc(C=NNc2nc(=Nc3ccccc3)[nH]c(=Nc3ccccc3)[nH]2)c1` it is 5.04%. For `CCN(CC)CCN(Cc1ccc(-c2ccc(C(F)(F)F)cc2)cc1)C(=O)Cn1c(CCc2ccccc2F)nc(=O)c2ccccc21`, the IFI came out at 8.76%. The figure for `CCCCCN(C(=O)Nc1cc(C(F)(F)F)cc(C(F)(F)F)c1)C(C)c1nc2ccccc2c(=O)n1CC` (stereo unspecified) is 3.55%; for `CN(C)Cc1cccc(-c2ccc(NC(=O)c3ccc4c(=O)n(Cc5cnn(C)c5)cnc4c3)cc2)c1` it is -0%.
